# In the supplement of paper PMC3334620:
# The full ranking holds about 33,000 sequences; the median of “E-score (-0.5 to 0.5)” is about -0.016, and the highest 2% start at about 0.32. The list shows a part of the results.
# Target: T1, Stp1 (UniProt B3LFK1)
# T1 sequence: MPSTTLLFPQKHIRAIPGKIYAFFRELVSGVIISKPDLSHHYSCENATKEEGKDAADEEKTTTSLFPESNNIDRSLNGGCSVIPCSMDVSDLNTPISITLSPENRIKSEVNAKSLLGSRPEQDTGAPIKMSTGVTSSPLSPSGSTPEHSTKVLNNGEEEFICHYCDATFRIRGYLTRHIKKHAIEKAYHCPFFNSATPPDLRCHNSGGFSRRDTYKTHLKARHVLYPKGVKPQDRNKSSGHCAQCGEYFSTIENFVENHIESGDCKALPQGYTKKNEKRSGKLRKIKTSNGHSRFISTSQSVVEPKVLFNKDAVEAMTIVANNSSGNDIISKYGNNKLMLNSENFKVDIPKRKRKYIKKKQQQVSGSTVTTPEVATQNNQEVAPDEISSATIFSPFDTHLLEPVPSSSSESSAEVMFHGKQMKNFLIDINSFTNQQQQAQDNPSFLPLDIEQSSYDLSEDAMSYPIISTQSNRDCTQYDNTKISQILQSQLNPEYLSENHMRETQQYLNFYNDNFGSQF
# Test: PBM E-score (8-mer binding enrichment) (E-score (-0.5 to 0.5)); higher = stronger / more preferred TF binding; most listed sequences are background and not binding sites
# Settings: protein concentration: 200 nM; construct: GST-full length
# Procedure, shortened: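 Bound GST-tagged yeast transcription factors, applied at about 100-200 nM to double-stranded universal all-10-mer Agilent arrays, were detected with fluorescent anti-GST. Scans were normalised with masliner. A modified Wilcoxon-Mann-Whitney statistic, the E-score, was assigned to each ungapped eight-base word pooled with its reverse complement by the Universal PBM Analysis Suite.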
row,Sequence,PBM E-score
1,GTGAAAAC,0.0563
2,CATCACCC,-0.127
3,GGAGCAAC,-0.177
4,ACAGCGCT,0.0298
5,AAGTTGAC,0.06
6,ACCAACCT,-0.0781
7,CTAAACAA,-0.015
8,ATCCCCCG,-0.294
9,CGTTAATC,0.238
10,CGAGGGGA,-0.223
11,GGTGATAA,-0.105
12,AGGTAAAT,0.0437
13,CGGGGCTC,-0.169
14,TAGCACTA,-0.0614
15,ACAGTCTA,-0.00216
16,CCACTTGA,0.0126
17,GGGAATAC,-0.0243
18,GGATGCCA,-0.0764
19,GGTCAGTA,-0.0339
20,GCTATTAC,0.0321
21,ACTTGAAG,0.119
22,CGTGCCGC,0.475
23,ACACTGAG,-0.14
24,ATTCATCG,0.108
25,ATCTCTGA,-0.0536

row,Sequence,PBM E-score
1,CCTAACCG,-0.151
2,GCTCTTCC,-0.228
3,AAACCGAC,0.024
4,CAAAACGG,0.308
5,ATCAAGCC,0.0655
6,AAAGTGGT,-0.0258
7,ACACATAC,-0.0529
8,TCATAAAA,0.075
9,AAGCCCTC,-0.348
10,CCGCGGGC,0.215
11,CTAAATGA,0.0316
12,AGCGGTTC,-0.146
13,ACACCTAA,0.0137
14,ACGGAATG,0.0305
15,GGACTGAA,-0.104
16,CCAGTGTC,-0.112
17,AATCCGAT,0.0131
18,GCAAACTA,0.00873
19,CAGAAACA,0.175
20,GCGTGGCC,0.033
21,ATTGGTAA,0.11
22,AGCGATGC,-0.0717
23,ACGGGGAA,-0.0268
24,AAACCAGA,-0.0442
25,ACAGATGA,-0.159

row,Sequence,PBM E-score
1,AACACCCT,-0.281
2,CTTCATCC,-0.151
3,CTCGAGCA,0.143
4,ACAAGTGC,-0.127
5,CGGCCTTA,0.293
6,AGAATCAT,-0.12
7,GCACAGCA,0.183
8,AACAACGT,-0.046
9,ACTGGGAC,-0.288
10,AGACGATC,-0.251
11,CATACCAA,-0.0291
12,CTGCGTTC,0.0719
13,CCGGAGTA,-0.0072
14,GCACAGAA,0.0354
15,ACGTGCCA,0.148
16,GGACCGTA,-0.17
17,CCCGCGGG,0.104
18,ATCGTCTG,0.0798
19,CGTCAGTC,-0.169
20,GGCGCCAA,0.379
21,CGCACACA,0.0485
22,AAGTTTCA,0.178
23,GCTTGCTA,-0.194
24,AGTTGAGA,-0.0601
25,ATATTCGG,0.0873

row,Sequence,PBM E-score
1,ATTTACGC,0.154
2,TATACTAA,0.00063
3,GGCGGCCA,-0.0116
4,CATGCTAC,-0.135
5,AGGCCCAG,-0.314
6,GATAGCCA,-0.166
7,CTGATAAA,0.0491
8,ACTATATA,0.243
9,CCCGACCC,-0.208
10,ACCGACAG,0.0513
11,ACCGAGTC,-0.367
12,TAACAGTA,0.129
13,CGTGCCCC,0.0449
14,CGCTACGA,-0.0206
15,CTGTGTGC,-0.146
16,CACAGGAG,0.0281
17,CTCGAACC,-0.104
18,ATGCGTCC,-0.0136
19,ATAGTAAC,0.0271
20,GGACGCAA,-0.123
21,AGAGTAAA,0.0654
22,GCGAGCTA,-0.0831
23,ACAGTCAA,-0.0726
24,CATTGTCG,0.0525
25,AACACAAA,0.0739

row,Sequence,PBM E-score
1,TCAAAGCA,0.0184
2,ACGTTACT,-0.00204
3,CGTGTCAG,0.119
4,AAATTCCT,0.0162
5,ATAGTTCG,0.0223
6,CTGTGAAA,0.182
7,ACGCACGA,0.237
8,CAGGCTAG,-0.334
9,GAACACTA,-0.0215
10,ATTGTTTA,0.111
11,AGGTATTG,-0.0693
12,ACGACCTC,0.0267
13,CATTGTAG,0.133
14,CTTGTTCC,-0.135
15,GAAACTAC,0.145
16,CCTCCAGC,-0.217
17,ATATACAT,0.107
18,GAATATCA,-0.0305
19,CTGGACGC,-0.111
20,CGTGAAGA,0.0737
21,GGACCGGA,-0.234
22,AGGACCGG,-0.406
23,ATGTCTCC,-0.165
24,ACCGGGAG,-0.355
25,TAACACTA,0.244

row,Sequence,PBM E-score
1,ACCAAAAC,0.081
2,GCTCTAGA,-0.0603
3,ATGGACGA,0.137
4,ATGTGGAC,0.0639
5,CTACTTGA,-0.0696
6,CAGATCCC,-0.135
7,CACAACCG,0.0612
8,ATAAGATC,0.00385
9,GGCAGCCA,-0.0156
10,CCTTCTTA,-0.0218
11,CATTCTTA,0.0101
12,AGGAACTG,-0.00391
13,ACCGCCAA,-0.276
14,ACCGGCGC,0.3
15,ATGTTGTG,0.0528
16,GCGTAGAC,-0.0508
17,CTGTTACC,-0.131
18,TATTCCAA,0.178
19,GTGGCGTA,0.0488
20,TCGACCAA,-0.0251
21,TGAGATAA,0.0624
22,ACGACAGA,-0.0742
23,GACGAGCA,-0.00677
24,ACTCCGCG,0.068
25,GTGGAATA,-0.0142

row,Sequence,PBM E-score
1,CTCTGATC,-0.0439
2,ATCCAAGA,-0.0212
3,CATGCTGG,-0.252
4,ACTTCGAC,0.183
5,CGCCAAAA,0.0598
6,CCTCTGAA,-0.301
7,GGTATGAC,-0.0709
8,ATATGTTC,0.0302
9,CCTCGTCC,-0.215
10,CCGTGCTC,0.261
11,AAGCCGAT,0.135
12,GGCCCAGA,-0.283
13,TTACAAAA,0.167
14,ATAATCAC,0.159
15,CCAGTGCA,-0.149
16,CCGAGCTC,0.00119
17,AGCAACAT,0.0205
18,ACTACCCA,-0.259
19,CCTGCGGC,0.331
20,AAACCACC,-0.0159
21,AGAAGATC,0.0528
22,CCCCGGGA,-0.256
23,GCCCCACC,-0.0669
24,AGTGGCCC,-0.202
25,CAATCCGA,-0.033

row,Sequence,PBM E-score
1,AGCCTAAC,0.0884
2,GACCTGGA,-0.208
3,AACCTCCT,-0.24
4,AAAGAATG,0.163
5,GGACTAAC,-0.266
6,CAGTCGAG,-0.205
7,ACATAAAT,0.206
8,AGGTCATA,-0.146
9,AAGACCGG,-0.173
10,ACATATGA,0.0631
11,GTCGTCCA,-0.0955
12,AGGGTTAG,-0.181
13,CGGACTCC,-0.0441
14,AACCTTGC,-0.0117
15,CTTTCAAC,0.0409
16,CCTCAGGC,-0.0779
17,CGATAAAA,0.129
18,ACCCTTAC,-0.0496
19,CAACTGCA,0.00074
20,AAATACAC,0.0347
21,GGGCGACC,0.004
22,GCGGAACA,0.114
23,CGATATAG,0.0421
24,CACGTCTG,0.199
25,CAGCTAGG,-0.288

row,Sequence,PBM E-score
1,ACGTCACA,-0.0409
2,CGGTGAAC,0.167
3,CTTGAGGA,-0.174
4,CGGGACCC,-0.172
5,ATTATGAC,0.0941
6,ACCCGTCA,-0.247
7,AGTGCAAA,0.101
8,CTTTGTTA,0.167
9,CACGCTCG,-0.2
10,AGCGCCCC,0.0659
11,CAACATAA,0.233
12,CAAATCGG,0.0218
13,CAGGTGCA,-0.157
14,GTGAGCAC,-0.066
15,AATGGGAC,-0.107
16,CACGATCG,0.0593
17,TATATATA,0.345
18,ATGCATGG,0.143
19,AGGGAATA,0.129
